Measured values from PubChem BioAssay AID624418 (National Center for Advancing Translational Sciences (NCATS), 2012).
The whole screen tested about 410,000 compounds, of which about 530 (0.13%) were called active. Inconclusive means that the source gave no clear call. Such entries were picked first, then a sample of the others. Calls come from the whole dose curve; as a rule, active = well fitted inhibition curve with a large enough effect; inconclusive = small, poorly fitted or top-dose-only effect, or another doubt; inactive = no such curve, though single readings can be large or run the other way. A potency beside an inconclusive call is a rough fit, not a confirmed value.

test: qHTS of GLP-1 Receptor Inverse Agonists: Cytotox Screen; details: HEK293 cAMP-luciferase reporter cells, luminescence, 24 h; activity change, negative = inhibition: at 38.3 µM (top of the series) unless noted
In short: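 Here, cytotoxicity is scored as loss of luminescence. The MLSMR collection was tested on cells seeded in medium containing 10% Nu serum, with a 24 hr compound exposure preceded by 12 hours of culture.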
% is set by controls: 0 for no effect and ±100 for the full control effect; potency is the fitted concentration of half-maximal effect.

Structure (SMILES) | activity change, negative = inhibition | Potency
Cc1c(NC(=O)c2nn(C(C)C)c(=O)c3ccccc23)c(=O)n(-c2ccccc2)n1C | inactive: 4.08% | 
Brc1ccc(CSc2nnc(-c3ccccn3)n2Cc2ccco2)cc1 |  | inconclusive: 12.6 µM [inhibitor, partial curve]
O=S(=O)(c1ccccc1)c1nc(-c2cccs2)oc1NCC1CCCO1 (centres undefined) | inactive: 40.8% | 
O=C(Nc1ccc(C2=CN(Cc3ccccc3)CCC2=O)cc1)OCc1ccccc1 |  | inconclusive: 0.501 µM [inhibitor, full curve, poor fit]
Cc1cc(-n2c(C)cc(C(=O)COc3ccc4ccc(=O)oc4c3)c2C)no1 |  | inconclusive: 12.6 µM [inhibitor, single point]
COc1cccc(CN2CCCN(CC(=O)Nc3ccc4c(c3)OCCO4)S2(=O)=O)c1 | inactive: 4.76% | 
Cc1ccc(CNC(=O)Cn2c(=O)c3sccc3n(Cc3ccc([N+](=O)[O-])cc3)c2=O)cc1 |  | inconclusive: 28.2 µM [inhibitor, single point]
Cc1cccc(N2CCN(S(=O)(=O)c3ccc4c(c3)C(C(C)C)C(=O)N4)CC2)c1C (centres undefined) | inactive: -5.53% | 
Cc1ccc(-c2nnc(SCC(=O)c3ccc(Cl)cc3)n2-c2ccccc2)cc1 | inactive: 0.596% | 
O=C(Cn1ncc2c3ccccc3n(Cc3ccc(F)cc3)c2c1=O)N1CCN(c2ncccn2)CC1 | inactive: -13.6% | 
CCOC(=O)C1CCCN(C(=O)c2ccc(F)c(C)c2)CC1 (centres undefined) | inactive: 1.16% | 
CCCCOc1ccc(C(=O)NCCc2sc(-c3ccc(OC)c(OC)c3)nc2C)cc1 |  | inconclusive: 28.2 µM [inhibitor, single point]
Cc1ccsc1/C=N\NC(=O)Cn1nnc2ccccc21 | inactive: -13.9% | 
CCOC(=O)N1CCN(Cc2nc3cc([N+](=O)[O-])ccc3n2C(C)C)CC1 | inactive: 0.689% | 
CC1(C(=O)NS(=O)(=O)c2cccc(OC(F)F)c2)CCN1C(=O)CCc1cccs1 (centres undefined) | inactive: 4.05% | 
O=C(Nc1cccc(C(F)(F)F)c1)c1cccnc1N1CCOCC1 | inactive: -6.66% | 
CC(C)(C)c1ccc(C(=O)NCCc2ccccc2)cc1 | inactive: 0.67% | 
O=C1NC(=O)C(Cc2c[nH]c3ccccc23)N1 (centres undefined) |  | inconclusive: 28.2 µM [inhibitor, partial curve, poor fit]
Clc1ccc(Oc2nc(Oc3ccc(Cl)cc3)nc(N3CCOCC3)n2)cc1 | inactive: 34.3% | 
Cc1ccc(-n2nc(C)c3c2OC(N)=C(C#N)C3c2ccoc2)cc1 (centres undefined) |  | inconclusive: 7.94 µM [inhibitor, partial curve, poor fit]
Cc1cnc(NC(=O)CN2CCN(c3ccccn3)CC2)s1 |  | inconclusive: 8.91 µM [inhibitor, partial curve, poor fit]
CCC(NC(=O)c1ccncc1)c1ccccc1 (centres undefined) | inactive: -4.75% | 
NNc1ncnc2scc(-c3ccc(Cl)cc3)c12 |  | inconclusive: 11.2 µM [inhibitor, single point]

Structure (SMILES) | activity change, negative = inhibition | Potency
CCCCCCCCN1C(=O)[C@H](CC(=O)NCc2cccc(C(F)(F)F)c2)C[C@@]2(C(=O)OC)CCCCC=C12 |  | inconclusive: 20 µM [inhibitor, single point]
COc1ccc(C2NC(=O)c3ccccc3O2)cc1OC (centres undefined) |  | inconclusive: 2.51 µM [inhibitor, partial curve, poor fit]
Cc1cccc(C)c1C(=O)N[C@@H](Cc1ccccc1)C(=O)O |  | inconclusive: 1.58 µM [inhibitor, full curve, poor fit]
CCCCCc1ccc(OCCCC[n+]2ccccc2)c(CCCCC)c1 |  | inconclusive: 7.94 µM [inhibitor, partial curve, poor fit]
Cc1ccc(S(=O)(=O)c2cn(CC(=O)Nc3ccccc3C)c3cc4c(cc3c2=O)OCO4)cc1 | inactive: 3.14% | 
COc1ccc(-c2nc3cc(C)ccn3c2NC(=O)c2ccc(F)cc2)cc1 | inactive: -1.77% | 
CCN1CCN(S(=O)(=O)c2ccc(Cl)c(C(=O)N(CCc3ccccc3)Cc3ccccc3)c2)CC1 |  | inconclusive: 12.6 µM [inhibitor, single point]
S=C(NCCC(c1ccccc1)c1ccccc1)Nc1ccccc1Cl |  | inconclusive: 28.2 µM [inhibitor, single point]
CN(c1nc2c(c(=O)n(C)c(=O)n2C)n1CC(=O)c1ccccc1)C1CCCCC1 | inactive: -24.7% | 
Cc1[nH]c2ccccc2c1C(=O)Cn1c(=O)oc2ccccc21 |  | inconclusive: 3.16 µM [inhibitor, partial curve, poor fit]
COc1ccc(OCc2nnnn2-c2ccccc2)cc1 |  | inconclusive: 0.501 µM [inhibitor, full curve, poor fit]
COc1cccc(-c2noc(CCC(=O)N3CCN(c4cc(C)ccc4C)CC3)n2)c1 | inactive: -9.15% | 
C=CCOC(=O)C1=C[C@@H](c2coc3ccccc3c2=O)C[C@@H](OCCCCO)O1 |  | inconclusive: 31.6 µM [inhibitor, partial curve, poor fit]
C=C(C(=O)c1ccccc1)C(C)C(=C)C(=O)c1ccccc1 |  | inconclusive: 6.31 µM [inhibitor, partial curve, poor fit]
CC(=O)CSc1ccc(-c2nc3cc(C)c(C)cc3[nH]2)cn1 |  | inconclusive: 11.2 µM [inhibitor, single point]
Cc1ccc(C(=O)c2oc3ccc(Cl)cc3c2NC(=O)CN2CCN(C)CC2)cc1 |  | inconclusive: 28.2 µM [inhibitor, single point]
COc1cccc(CN(C)C(=O)C(CCSC)NS(=O)(=O)c2ccc3c(c2)OCCO3)c1OC (centres undefined) |  | inconclusive: 10 µM [inhibitor, partial curve, poor fit]
Cc1cc(C(=O)c2ccc(Cl)cc2)c(NC(=O)CCl)s1 |  | inconclusive: 28.2 µM [inhibitor, single point]
Cc1ccc(C)c(NC(=S)NC(NC(=O)Cc2cccc3ccccc23)C(Cl)(Cl)Cl)c1 (centres undefined) |  | active: 6.31 µM
COC(=O)c1cccc(S(=O)(=O)N2CCN(c3nc4ccccc4s3)CC2)c1 | inactive: -3.08% | 
Cc1ccc(C)c(CNC(=O)Nc2ccccc2)c1 | inactive: -12.8% | 
CC1Nc2ncnc(N3CCc4ccccc4C3)c2N(Cc2ccc(Br)cc2)C1=O (centres undefined) |  | inconclusive: 31.6 µM [inhibitor, single point]
O=[N+]([O-])c1ccc(Sc2nccn2Cc2ccccc2)c([N+](=O)[O-])c1 |  | inconclusive: 12.6 µM [inhibitor, partial curve, poor fit]

Structure (SMILES) | activity change, negative = inhibition | Potency
COc1cc(O)c(C(CCN2CCCC(C)C2)c2ccc(N(C)C)cc2)c(OC)c1 (centres undefined) |  | inconclusive: 12.6 µM [inhibitor, single point]
O=C(O)CCCN1C(=O)/C(=C\c2ccco2)SC1=S |  | inconclusive: 10 µM [inhibitor, partial curve, poor fit]
FC(F)(F)c1ccc2c3n(nc2c1)CCN=C3c1ccc(Cl)cc1 |  | inconclusive: 3.55 µM [inhibitor, partial curve, poor fit]
CN1CCN(c2ncnc3c2c(-c2ccccc2)cn3-c2ccc(F)cc2)CC1 |  | inconclusive: 10 µM [inhibitor, partial curve]
COc1cc(NC(=O)COc2ccccc2Cl)ccc1NC(=O)c1cccs1 |  | inconclusive: 10 µM [inhibitor, partial curve]
Cc1cc(C(O)c2ncc(-c3ccc(Oc4ccccc4)cc3)[nH]2)ccc1F (centres undefined) |  | inconclusive: 22.4 µM [inhibitor, single point]
Cc1cc(C)cc(N(CCC#N)C(=O)COC(=O)C2CCN(c3ccc(C(F)(F)F)cn3)CC2)c1 |  | inconclusive: 22.4 µM [inhibitor, partial curve, poor fit]
CCc1sc(C(=O)Nc2nc(C)cs2)cc1C |  | inconclusive: 31.6 µM [inhibitor, single point]
CCCCNC(=O)c1ccc2c(c1)N(CC)C(=O)c1ccccc1S2 | inactive: -3.55% | 
COc1ccc(OC)c(N=Nc2c(O)c3ccccc3[nH]c2=O)c1 |  | inconclusive: 7.08 µM [inhibitor, partial curve, poor fit]
CC(=O)N1CCCc2cc(S(=O)(=O)N3CCN(c4ccccc4F)CC3)ccc21 | inactive: 0.836% | 
NC(=NCCCCCCN=C(N)/N=C(\N)Nc1ccc(Cl)cc1)/N=C(\N)Nc1ccc(Cl)cc1 |  | inconclusive: 22.4 µM [inhibitor, single point]
CCCCc1ccc(NC(=S)NCC2CCCO2)cc1 (centres undefined) |  | inconclusive: 28.2 µM [inhibitor, single point]
Cn1nnc(NC(=S)NC(=O)c2cc(Cl)ccc2Cl)n1 | inactive: -2.1% | 
O=P(O)(O)c1ccccc1OCCOCCOCCOCCOc1ccccc1P(=O)(O)O | inactive: -19% | 
O=C(O)CCN1C(=O)/C(=C\c2cccc(OCC(=O)Nc3ccc(Cl)cc3)c2)SC1=S |  | inconclusive: 12.6 µM [inhibitor, single point]
CCOC(=O)N1CCC(NC(=O)c2ccc3c(c2)N=C(CC)c2cc(C)ccc2S3)CC1 |  | inconclusive: 0.631 µM [inhibitor, full curve]
CCOC(=O)N1CCN(c2nc(-c3ccccc3)c3cc(C)ccc3n2)CC1 | inactive: 56.2% | 
Cc1c(C(=O)O)c(O)cc2c1C(=O)c1c(O)c([C@@H]3O[C@H](CO)[C@@H](O)[C@H](O)[C@H]3O)c(O)c(O)c1C2=O |  | inconclusive: 8.91 µM [inhibitor, partial curve, poor fit]
Cc1c(C)n(Cc2ccccc2)c2ccc(C(=O)N3CCN(c4ccc(F)cc4)CC3)cc12 | inactive: 5.36% | 
CCN(Cc1ccccc1)C(=O)c1cc(-c2ccccc2)n[nH]1 | inactive: 1.9% | 
CC(=O)CCSc1ncnc2sc(-c3ccccc3)cc12 |  | inconclusive: 0.501 µM [inhibitor, full curve, poor fit]
CCOC(=O)c1c(C)n(C)c2ccc(OCC(O)CN3CCCCCC3)cc12 (centres undefined) |  | inconclusive: 7.08 µM [inhibitor, partial curve, poor fit]
